32 sequences from PMC12820563, “FoxP3 forms a head-to-head dimer in vivo and stabilizes its multimerization on adjacent microsatellites” can be followed below.

Some of the results follow.

The assay concerns the target T1, MBP-FoxP1dN (Mus musculus, UniProt P58462 326-579).
T1 sequence: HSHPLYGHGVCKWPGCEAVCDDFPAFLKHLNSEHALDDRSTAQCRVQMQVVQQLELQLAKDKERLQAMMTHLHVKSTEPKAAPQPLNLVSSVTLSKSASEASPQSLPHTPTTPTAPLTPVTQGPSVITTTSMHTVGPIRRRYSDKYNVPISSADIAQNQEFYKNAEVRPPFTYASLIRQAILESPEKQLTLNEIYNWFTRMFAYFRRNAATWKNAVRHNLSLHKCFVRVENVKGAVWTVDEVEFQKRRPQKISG
The assay is described as follows: PD-seq (MBP pull-down with sequencing); 20 mM Tris-HCl pH 7.5, 100 mM NaCl, 1.5 mM MgCl2, 0.4 uM protein, 0.1 uM dsDNA library, 30 min, room temperature, amylose pull-down; high values mean tight binding. Conditions: protein: recombinant; tags: His6-MBP; chain copies: 2; dsDNA, one strand shown. The procedure, abridged:
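A degenerate double-stranded DNA library, filled in with Klenow, was added at 0.1 µM to 0.4 µM His6-MBP-tagged mouse FoxP3 or FoxP1 fragment lacking the N-terminus, expressed in E. coli. Incubation lasted 30 min at room temperature in Tris pH 7.5 buffer with NaCl and MgCl2, after which complexes were collected on amylose resin, washed three times, digested with proteinase K to free the DNA, barcoded by PCR and sequenced by Illumina. Binding is the pooled-replicate reads-per-million enrichment of pull-down over input.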
For the sequence “GATGATTGTTCTCCCAGCTGATGAATTCGCAGTGTCGAGTAAACAAATTTTCCTAATCTTTCTGTTCAAGCGCCATCTAC”, the binding signal was 0.866 RPM ratio (pull-down/input).

Take “GATGATTGTTCTCCCAGCTGATGAATTCAAAATCTCGAGTAAACAAATTTTCCTAATCTTTCTGTTCAAGCGCCATCTAC”: the binding signal is 0.867 RPM ratio (pull-down/input). With “GATGATTGTTCTCCCAGCTGATGAATTATAGGGTTCGAGTAAACAAATTTTCCTAATCTTTCTGTTCAAGCGCCATCTAC”, the binding signal was 0.946 RPM ratio (pull-down/input).

For the sequence “GATGATTGTTCTCCCAGCTGATGAATTTTCGCCCTCGAGTAAACAAATTTTCCTAATCTTTCTGTTCAAGCGCCATCTAC”, the binding signal was 0.825 RPM ratio (pull-down/input). Under “GATGATTGTTCTCCCAGCTGATGAATTTCGAAGGTCGAGTAAACAAATTTTCCTAATCTTTCTGTTCAAGCGCCATCTAC” stands 0.722 RPM ratio (pull-down/input); under “GATGATTGTTCTCCCAGCTGATGAATTCTTCGAGTCGAGTAAACAAATTTTCCTAATCTTTCTGTTCAAGCGCCATCTAC”, 0.849 RPM ratio (pull-down/input); under “GATGATTGTTCTCCCAGCTGATGAATTCGCCTATTCGAGTAAACAAATTTTCCTAATCTTTCTGTTCAAGCGCCATCTAC”, 0.908 RPM ratio (pull-down/input). As to “GATGATTGTTCTCCCAGCTGATGAATTTCAAATTTCGAGTAAACAAATTTTCCTAATCTTTCTGTTCAAGCGCCATCTAC”, the binding signal was 0.846 RPM ratio (pull-down/input). With “GATGATTGTTCTCCCAGCTGATGAATTATCTTGTTCGAGTAAACAAATTTTCCTAATCTTTCTGTTCAAGCGCCATCTAC”, the binding signal is 1.02 RPM ratio (pull-down/input). Regarding “GATGATTGTTCTCCCAGCTGATGAATTCCCATTTTCGAGTAAACAAATTTTCCTAATCTTTCTGTTCAAGCGCCATCTAC”, the binding signal is 0.961 RPM ratio (pull-down/input). As for “GATGATTGTTCTCCCAGCTGATGAATTTTCGTATTCGAGTAAACAAATTTTCCTAATCTTTCTGTTCAAGCGCCATCTAC”, the binding signal is 1.05 RPM ratio (pull-down/input). Next, “GATGATTGTTCTCCCAGCTGATGAATTCCCTTACTCGAGTAAACAAATTTTCCTAATCTTTCTGTTCAAGCGCCATCTAC”: 0.802 RPM ratio (pull-down/input). For “GATGATTGTTCTCCCAGCTGATGAATTACATTAATCGAGTAAACAAATTTTCCTAATCTTTCTGTTCAAGCGCCATCTAC”, the binding signal was 1.37 RPM ratio (pull-down/input).

Consider “GATGATTGTTCTCCCAGCTGATGAATTCTCCTAATCGAGTAAACAAATTTTCCTAATCTTTCTGTTCAAGCGCCATCTAC”, for which the binding signal was 0.872 RPM ratio (pull-down/input). “GATGATTGTTCTCCCAGCTGATGAATTTACCTCTTCGAGTAAACAAATTTTCCTAATCTTTCTGTTCAAGCGCCATCTAC”: the binding signal was 1.21 RPM ratio (pull-down/input).

For “GATGATTGTTCTCCCAGCTGATGAATTCTACGCCTCGAGTAAACAAATTTTCCTAATCTTTCTGTTCAAGCGCCATCTAC”, the binding signal was 0.851 RPM ratio (pull-down/input). Next, “GATGATTGTTCTCCCAGCTGATGAATTTGAGGGATCGAGTAAACAAATTTTCCTAATCTTTCTGTTCAAGCGCCATCTAC”: 0.822 RPM ratio (pull-down/input); “GATGATTGTTCTCCCAGCTGATGAATTCGTCTTCTCGAGTAAACAAATTTTCCTAATCTTTCTGTTCAAGCGCCATCTAC”: 0.86 RPM ratio (pull-down/input); “GATGATTGTTCTCCCAGCTGATGAATTAACAGAATCGAGTAAACAAATTTTCCTAATCTTTCTGTTCAAGCGCCATCTAC”: 1.16 RPM ratio (pull-down/input).

Regarding “GATGATTGTTCTCCCAGCTGATGAATTATTAGAATCGAGTAAACAAATTTTCCTAATCTTTCTGTTCAAGCGCCATCTAC”, the binding signal was 1.2 RPM ratio (pull-down/input). Next, “GATGATTGTTCTCCCAGCTGATGAATTAGTGGCATCGAGTAAACAAATTTTCCTAATCTTTCTGTTCAAGCGCCATCTAC”: 1.23 RPM ratio (pull-down/input); “GATGATTGTTCTCCCAGCTGATGAATTCACCCGTTCGAGTAAACAAATTTTCCTAATCTTTCTGTTCAAGCGCCATCTAC”: 0.895 RPM ratio (pull-down/input). For “GATGATTGTTCTCCCAGCTGATGAATTTTTTGCCTCGAGTAAACAAATTTTCCTAATCTTTCTGTTCAAGCGCCATCTAC”, the binding signal is 0.956 RPM ratio (pull-down/input). Next, “GATGATTGTTCTCCCAGCTGATGAATTTCCTACATCGAGTAAACAAATTTTCCTAATCTTTCTGTTCAAGCGCCATCTAC”: 0.934 RPM ratio (pull-down/input); “GATGATTGTTCTCCCAGCTGATGAATTCTCCTGGTCGAGTAAACAAATTTTCCTAATCTTTCTGTTCAAGCGCCATCTAC”: 0.758 RPM ratio (pull-down/input); “GATGATTGTTCTCCCAGCTGATGAATTGCACGCGTCGAGTAAACAAATTTTCCTAATCTTTCTGTTCAAGCGCCATCTAC”: 1.17 RPM ratio (pull-down/input).

Take “GATGATTGTTCTCCCAGCTGATGAATTTCATCTATCGAGTAAACAAATTTTCCTAATCTTTCTGTTCAAGCGCCATCTAC”: the binding signal was 0.877 RPM ratio (pull-down/input). Under “GATGATTGTTCTCCCAGCTGATGAATTTACACAGTCGAGTAAACAAATTTTCCTAATCTTTCTGTTCAAGCGCCATCTAC” stands 1.34 RPM ratio (pull-down/input). Next, “GATGATTGTTCTCCCAGCTGATGAATTTAGGTGTTCGAGTAAACAAATTTTCCTAATCTTTCTGTTCAAGCGCCATCTAC”: 1.02 RPM ratio (pull-down/input); “GATGATTGTTCTCCCAGCTGATGAATTGCTCTATTCGAGTAAACAAATTTTCCTAATCTTTCTGTTCAAGCGCCATCTAC”: 1.07 RPM ratio (pull-down/input).

Consider “GATGATTGTTCTCCCAGCTGATGAATTCCAAGAGTCGAGTAAACAAATTTTCCTAATCTTTCTGTTCAAGCGCCATCTAC”, for which the binding signal was 0.727 RPM ratio (pull-down/input).

Take “GATGATTGTTCTCCCAGCTGATGAATTCTCCACATCGAGTAAACAAATTTTCCTAATCTTTCTGTTCAAGCGCCATCTAC”: the binding signal was 0.931 RPM ratio (pull-down/input).
